The record followed here is PubChem BioAssay AID1508642 (National Center for Advancing Translational Sciences (NCATS), 2021).

The whole screen tested about 43,000 compounds, of which about 200 (0.47%) were called active. Not shown: some 12% with an inconclusive outcome. The call rests on the fitted dose curve; in most records, active means well fitted cell-killing curve with a large enough effect; inconclusive means small, poorly fitted or top-dose-only effect, or effect the other way; inactive means flat fitted curve, though single readings scatter. This is one part of the list.
On the % scale 0 is the no-effect control and ±100 the full control effect.

A short description of this test: Cell viability qHTS assay in S16 Pmp22-F2sN cells. Further: nearly all actives have a fitted effect of over 65% in size. The note with it: S16 Pmp22-F2sN Schwann cells (luciferase reporters placed in the Pmp22 gene) viability, CellTiter-Glo, 24 h; series mostly up to 57.5 µM; activity change, negative = cytotoxicity: at the top concentration. The source says:
Assay Provider: Jim Inglese Ph.D. National Center for Advancing Translational Science, National Institutes of Health, Rockville, MD CMT is a heterogeneous group of neurological disorders that affect approximately 1 in 2,500 people. In particular, the most common form of CMT, CMT1A is genetically linked to the duplication of the PMP22 gene which leads to Schwann cell overexpression, thus manifesting itself as a typical case of dose-sensitive diseases. To identify small molecule compounds that can mediate the expression of PMP22 we developed a phenotypic assay screening strategy by utilizing genome editing techniques to construct Schwann cell lines containing novel reporter technology to monitor the transcriptional or translational regulation of PMP22. For high sensitivity we use a bioluminescent reporter system embedded in the 3' UTR of the PMP22 gene (S16(c9) Pmp22-F2sN) to identify compounds that inhibit gene expression. […] We can further discriminate the effect of all transcriptionally active molecules on PMP22 translation or stability with an assay that incorporates a short NLuc peptide (HiBiT) at the C-terminus of expressed PMP22 (S16(f8) PMP22-HiBiT) allowing alpha complementation and luminescence detection of membrane-associated PMP22 protein. These assays were screened against the NCATS Sytravon Library Collection. Miniaturization of these assays to 1536-well plate format for quantitative high throughput screening (qHTS) yielded rich data sets immediately from the qHTS assay (S16(c9) Pmp22-F2sN), when compared with data from a cell viability assay (Cell TiterGlo) to identify compounds that decreased the output signals through cellular toxicity to streamline the selection process of actives for subsequent characterization using the HiBiT assay (S16(f8) PMP22-HiBiT).
Cell viability assay in S16 Pmp22-F2sN cells PROTOCOL TABLE (format as described by Inglese J, Shamu CE and Guy RK. 2007) SEQUENCE No. (e.g., 1, 2, 3, etc.); […] (e.g., Cells, Incubation, Reagent, etc.); VALUE and DESCRIPTION. 1. Cells. Add 500-1,000 cells in 4 uL in growth media (DMEM High Glucose, No Phenol Red media + 10% heat-inactivated FBS + 1% Pen/Strep supplemented media) per well into Greiner 1536-well white/solid bottom high base, TC-treated plates. 2. Compounds. Library compounds and controls added at 23nL per well, transferred by Pin Tool. 3. Incubation. Incubate plates at 37C, 5% CO2, 95% RH for 24 h. 4. Reagent. Add 3uL CellTiter-Glo per well of Greiner 1536-well plates. 5. Incubation. Incubate plates at room temperature for 15 min., protect from light. 6. Detector. FLuc luminescence measured using CCD-based camera (Viewlux). NOTES (numbers refer to Sequence numbers above; values are from representative experiments) 6. Luminescence Read: Clear filter; Exposure = 1 sec, Gain = High, Speed = Slow, Binning = 2X REFERENCES: 1. Inglese J, Shamu CE and Guy RK, Reporting data from high throughput screening of small molecule libraries, Nature Chemical Biology, 2007, 3(8): 438-441. doi.org/10.1038/nchembio0807-438 2. Yasgar A, Shinn P, Jadhav A, Auld DS, Michael S, Zheng W, Austin CP, Inglese J and Simeonov A, Compound Management for Quantitative High-Throughput Screening. J. Assoc. Lab. Auto., 2008, 13: 79-89. doi: 10.1016/j.jala.2007.12.004
In general terms: qHTS replaces the single test concentration by a dilution series.
With `COc1cccc(NC2=CC(c3ccc(C(C)C)cc3)N(c3cccc(OC)c3)C2=O)c1` (stereo unspecified), the “activity change, negative = cytotoxicity” value is inactive: -15.2%.

Turning to `COc1ccc(NC(=O)CCS(=O)(=O)c2cc3c4c(c2)CCN4C(=O)CC3)cc1OC`, the “activity change, negative = cytotoxicity” value is inactive: -11.1%.

`CCC(C(=O)Nc1ccc(F)cc1F)n1nc(-c2ccccc2)c2c(c1=O)CCCC2` (stereo unspecified): the “activity change, negative = cytotoxicity” value was inactive: -11.4%.

Turning to `COc1cccc(CNC(=O)CSc2nnc(C)c3c(C)n(-c4ccccc4)nc23)c1`, the “activity change, negative = cytotoxicity” value is inactive: -2.72%.

With `O=C(c1cccn1-c1nnc(N2CCCC2)s1)N1CCN(c2ccc(F)cc2)CC1`, the “activity change, negative = cytotoxicity” value was inactive: -4.54%.

On to `Cc1cccc(OCC(=O)NCc2ccc3c(c2)CCN3C(=O)c2ccc(Cl)cc2)c1`, for which the “activity change, negative = cytotoxicity” value is inactive: -3.78%.

As for `O=C(c1ccc(F)cc1)N1CCN(CCc2ccncc2)CC1`, the “activity change, negative = cytotoxicity” value is inactive: 5.91%.

As for `COc1ccc(-c2nnc(SCC(=O)Nc3ccc(C)c(Cl)c3)nc2-c2ccc(OC)c(OC)c2)cc1OC`, the “activity change, negative = cytotoxicity” value is inactive: 1.65%.

As to `CCOc1ccc(NC(=O)c2c(NC(=O)c3ccncc3)sc3c2CCC(C(C)(C)C)C3)cc1` (stereo unspecified), the “activity change, negative = cytotoxicity” value is inactive: -0.378%.

In the case of `COc1ccc(NC(=O)c2ccco2)cc1NC(=O)COc1cc(C)ccc1C(C)C`, the “activity change, negative = cytotoxicity” value is inactive: -0.486%.

As for `Cc1nc(N)c(S(=O)(=O)c2ccccc2)c(Nc2ccc(Br)cc2)n1`, the “activity change, negative = cytotoxicity” value was inactive: 1.55%.

On to `COc1ccc(Cl)cc1S(=O)(=O)N1CCC(c2ccncc2)CC1`, for which the “activity change, negative = cytotoxicity” value was inactive: -16.2%.

For the compound `CC(=O)N1c2ccccc2CC1C(=O)N1CCN(c2cc(Cl)ccc2C)CC1` (stereo unspecified), the “activity change, negative = cytotoxicity” value is inactive: -14.8%.

On to `CCc1ccc(NC(=O)Cn2nnc(C(=O)NCCc3ccccc3)c2N)cc1`, for which the “activity change, negative = cytotoxicity” value is inactive: 2.47%.

As for `O=C(NCc1cccc(F)c1)C1CCN(c2nn3cc(-c4ccc(F)cc4)nc3s2)CC1`, the “activity change, negative = cytotoxicity” value was inactive: -3.21%.

Consider `N#Cc1ccccc1Cn1c(=O)n(-c2ccccc2)c(=O)c2c3c(sc21)CCC3`, for which the “activity change, negative = cytotoxicity” value was inactive: 13.1%.

For the compound `CCOc1ccccc1NC(=O)Cn1c(=O)n(CCCCC(=O)NCCCOC)c(=O)c2ccccc21`, the “activity change, negative = cytotoxicity” value was inactive: 13.8%.

`Cc1ccc2[nH]c3c(=O)n(CC(=O)NCCCN4CCN(c5ccc(F)cc5)CC4)ncc3c2c1`: the “activity change, negative = cytotoxicity” value is inactive: 0.718%.

Turning to `CCc1ccccc1N(C)C(=O)c1cc2c(Cl)nc3ccc(C)cc3c2s1`, the “activity change, negative = cytotoxicity” value is inactive: 23.1%.

With `COCCCNC(=O)C1CCN(C(=O)c2ccc(-n3ccc4ccccc43)s2)CC1`, the “activity change, negative = cytotoxicity” value was inactive: -8.45%.

For `Cc1cc(C)cc(N(CC(=O)Nc2ccc(C)cc2Cl)S(=O)(=O)c2c(C)[nH]c(=O)[nH]c2=O)c1`, the “activity change, negative = cytotoxicity” value was inactive: 16%.

On to `CC1CCN(S(=O)(=O)c2ccc3c(c2)oc(=O)n3CC(=O)N2CCCCC2)CC1`, for which the “activity change, negative = cytotoxicity” value was inactive: -1.91%.

For `Cc1ccccc1CNCCSc1nnnn1C`, the “activity change, negative = cytotoxicity” value is inactive: 6.11%.

Take `Cc1cccc(C)c1NC(=O)c1nc(SC(C)C)ncc1Cl`: the “activity change, negative = cytotoxicity” value was inactive: -15.8%.

As for `O=C(Nc1ccc(O)c(-c2nc3ccccc3o2)c1)c1ccc(-c2cccc(Cl)c2)o1`, the “activity change, negative = cytotoxicity” value was inactive: 6.99%.

Consider `COC(=O)c1ccc(-n2nnc(-c3nsc(NC(=O)c4ccc(Cl)cc4)n3)c2C)cc1`, for which the “activity change, negative = cytotoxicity” value is inactive: -6.59%.

With `O=c1c(NCCc2ccc(Cl)cc2)nccn1-c1ccccc1`, the “activity change, negative = cytotoxicity” value was inactive: -19%.

Turning to `COc1ccccc1NC(=O)CCNS(=O)(=O)c1ccc2c(c1)CCN2C(=O)C1CC1`, the “activity change, negative = cytotoxicity” value was inactive: -11.4%.

Take `Cc1ccccc1CNC(=O)Cc1csc2ccccc12`: the “activity change, negative = cytotoxicity” value is inactive: -5.41%.

As to `CCN(CC)C(=O)c1sc2c(c1C)c(=O)n(Cc1ccccc1)c(=O)n2CC(=O)Nc1ccc(OC)cc1`, the “activity change, negative = cytotoxicity” value was inactive: -15.4%.

On to `CCN(Cc1ccccc1)C(=O)CCS(=O)(=O)c1cc(Br)cc2c1N(C(=O)C1CC1)CC2`, for which the “activity change, negative = cytotoxicity” value is inactive: -4.16%.

Take `CN(c1ccccc1)S(=O)(=O)c1nnc(NC(=O)c2cccs2)s1`: the “activity change, negative = cytotoxicity” value was inactive: 1.49%.

Take `CCOC(=O)c1c(C)oc2ccc(N(C(=O)c3ccncc3)S(=O)(=O)c3ccc(F)cc3)cc12`: the “activity change, negative = cytotoxicity” value was inactive: -12.4%.

On to `COc1ccc(OC)c(CCNC(=O)c2cc3cccc4c3n2CCS4)c1`, for which the “activity change, negative = cytotoxicity” value was inactive: -8.68%.

For the compound `Cc1cc2n(n1)CCCN2C(=O)Nc1ccc(C)c(Cl)c1`, the “activity change, negative = cytotoxicity” value is inactive: -0.0474%.

Consider `Cc1ccc(C)c(N2CCN(S(=O)(=O)c3ccc(F)c(C(=O)Nc4ccc(Cl)cc4Cl)c3)CC2)c1`, for which the “activity change, negative = cytotoxicity” value is inactive: 4.12%.

For the compound `COc1ccc(-c2cn3nc(SCC(=O)Nc4ccccc4F)ccc3n2)cc1`, the “activity change, negative = cytotoxicity” value was inactive: 4.05%.

In the case of `Cc1cc(C)c(NC(=O)COCc2cc(-c3cccs3)on2)c(C)c1`, the “activity change, negative = cytotoxicity” value is inactive: -2.89%.

As to `O=C(CSc1nccn1Cc1ccc(F)cc1)NCc1ccccc1`, the “activity change, negative = cytotoxicity” value is inactive: 3.56%.

As for `Cc1cccc(OCC(=O)Nc2cccc(C(=O)OCc3cc(=O)n4c(C)csc4n3)c2)c1`, the “activity change, negative = cytotoxicity” value was inactive: -12.9%.

For `CCc1cccc(N2C(=O)CSC23C(=O)N(Cc2ccccc2F)c2ccccc23)c1` (stereo unspecified), the “activity change, negative = cytotoxicity” value was inactive: 22.8%.

In the case of `COc1ccc(-n2ncc(C(=O)NCc3ccc4c(c3)OCO4)c2C2CCN(C(=O)OC(C)(C)C)CC2)cc1`, the “activity change, negative = cytotoxicity” value was inactive: -17.3%.

On to `COc1cc(NC(=O)Cn2c(=O)n(-c3ccccc3)c(=O)c3c4c(sc32)CCCC4)cc(OC)c1`, for which the “activity change, negative = cytotoxicity” value was inactive: 6.91%.

In the case of `Cc1ccccc1OCc1ccc(-c2nc(C#N)c(N3CCCCC3)o2)o1`, the “activity change, negative = cytotoxicity” value is inactive: -3.74%.

On to `CCCCNC(=O)c1cnn2c(C)c(Cc3c(C)cc(C)cc3C)c(C)nc12`, for which the “activity change, negative = cytotoxicity” value is inactive: -25.1%.

For `COc1ccc(CC(=O)NCC(c2ccc(N(C)C)cc2)N2CCOCC2)cc1OC` (stereo unspecified), the “activity change, negative = cytotoxicity” value is inactive: 8.81%.

As to `CSc1ccc(CNC(=O)c2ccc3c(c2)N(C)C(=O)C2CCCCN32)cc1` (stereo unspecified), the “activity change, negative = cytotoxicity” value is inactive: 3.86%.

As to `CC(C)COc1ccc(C(=O)Nc2scc(-c3ccc(Br)cc3)c2C(=O)OC(C)C)cc1`, the “activity change, negative = cytotoxicity” value is inactive: 1.01%.

Consider `CCN(CC)c1ccc2cc(-c3nc(-c4ccccc4)no3)c(=O)oc2c1`, for which the “activity change, negative = cytotoxicity” value is inactive: -1.22%.

As to `Cc1ccc(CNC(=O)c2c(-c3ccc(F)cc3F)noc2C)o1`, the “activity change, negative = cytotoxicity” value was inactive: 0.347%.

For `Cc1cc(C)c(NC(=O)Cn2nnc(C(=O)NCc3cccs3)c2N)c(C)c1`, the “activity change, negative = cytotoxicity” value was inactive: 2.13%.

As for `COc1ccc(-c2cn3nc(N4CCCC(C(=O)Nc5cc(Cl)ccc5OC)C4)sc3n2)cc1` (stereo unspecified), the “activity change, negative = cytotoxicity” value was inactive: 29.4%.

As for `O=C(NCc1cccc(Cl)c1)C1CCN(c2nn3cc(-c4ccc(F)cc4)nc3s2)CC1`, the “activity change, negative = cytotoxicity” value was inactive: 7.09%.

Consider `Cc1nc2cccnc2n1C1CCN(C(=O)Nc2ccccc2C(F)(F)F)CC1`, for which the “activity change, negative = cytotoxicity” value is inactive: -0.489%.

`CNS(=O)(=O)c1cn(CC(=O)N2CCN(c3ccc(Cl)cc3)CC2)cc1S(=O)(=O)NC`: the “activity change, negative = cytotoxicity” value was inactive: -1.38%.

In the case of `COc1ccc(C(=O)COC(=O)CCCC(=O)Nc2ccc(C(C)=O)cc2)cc1`, the “activity change, negative = cytotoxicity” value is inactive: 12.6%.

Turning to `CCOc1ccc(-n2nc(CO)c(C(=O)NCC(c3ccccc3)c3ccccc3)n2)cc1`, the “activity change, negative = cytotoxicity” value was inactive: -1.06%.

For `O=C(NCc1ccccc1)c1cccc(N2CCCS2(=O)=O)c1`, the “activity change, negative = cytotoxicity” value was inactive: 1.24%.

Consider `O=c1ccc2cc(S(=O)(=O)NCc3ccc(Cl)cc3)ccc2[nH]1`, for which the “activity change, negative = cytotoxicity” value is inactive: -0.605%.

With `Cc1nn(S(=O)(=O)c2ccc(C(C)C)cc2)c(C)c1S(=O)(=O)N1CCCCC1`, the “activity change, negative = cytotoxicity” value was inactive: 15.6%.

Take `CCc1cccc(C)c1NS(=O)(=O)c1ccc2c(c1)NC(=O)C(C)C(=O)N2` (stereo unspecified): the “activity change, negative = cytotoxicity” value is inactive: 1.3%.
